From PubChem BioAssay AID493208 (National Center for Advancing Translational Sciences (NCATS), 2011)
Out of some 44,000 compounds screened, about 340 (0.77%) were called active. Roughly 5% stayed inconclusive and do not appear here. Calls come from the whole dose curve; as a rule, active = well fitted inhibition curve with a large enough effect; inconclusive = small, poorly fitted or top-dose-only effect; inactive = flat fitted curve, though single readings scatter. The list shows a part of the results.

Assay: Acumen qHTS Assay for Inhibitors of the mTORC1 Signaling Pathway in MEF (Tsc2-/-, p53-/-) Cells: Sytravon;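 note: plate controls were DMSO for no effect and rapamycin for full effect; nearly all actives have a fitted effect of over 50% in size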
Details: phospho-rpS6 immunofluorescence/PI, 24 h; series mostly up to 38.3 µM; activity change, negative = inhibition: at the top concentration
Summary of the method: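 Immunofluorescence of rpS6 phosphorylation in Tsc2-/-, p53-/- MEFs after 24 h compound exposure, normalized to propidium iodide signal. Activity is expressed as % positive cells, thresholded with 7.5 nM rapamycin.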

Activity change, negative = inhibition, inactive:
CCc1ccccc1NS(=O)(=O)c1ccc(NC(=O)N2CCCC2)cc1 6.33%, COc1cc(NC(=O)c2cc3ccccn3n2)cc(OC)c1OC -2.85%, CCOc1ccc(-c2cc(-c3nc(-c4cc(OC)c(OC)c(OC)c4)no3)[nH]n2)cc1 -6.56%, CC(=O)c1ccc(NC(=O)c2ccc(-c3nc(CSc4ccccc4)c(C)o3)cc2)cc1 -1.39%, Fc1ccc(-c2noc3ncnc(NCC4CCN(Cc5ccc(Cl)cc5)CC4)c23)cc1 -12.1%, COc1cc(NC(=O)c2cc(C)nc3c2c(C)nn3-c2ccccc2Cl)cc(OC)c1 2.13%, Cc1ccc2cc3c(N)nn(C(=O)c4cccc(F)c4)c3nc2c1 -12.1%, Cc1cc(C)cc(NC(=O)Cn2nnc(-c3nc(-c4ccncc4)no3)c2N)c1 -4.07%, Cc1ccc(N2CCN(S(=O)(=O)c3ccc(F)c(C(=O)Nc4ccc(Cl)cc4Cl)c3)CC2C)cc1 (stereo unspecified) 10.3%, Cc1cc2c(cc3c(SCc4nc(-c5ccccc5)oc4C)nnc(C)n32)o1 -0.889%, CCn1ccc2c(OCC(=O)Nc3ccccc3C)cccc2c1=O -7.96%, O=C(Nc1ccc2nc(SCC(=O)N3CCCc4ccccc43)sc2c1)c1ccccc1 -12.3%, CCOC(=O)c1ccc(NC(=O)Nc2cc3c(cc2N2CCCC2)n(C)c(=O)n3C)cc1 13.9%, COc1ccc(N2CCN(C(=O)c3cccc(NC(=O)c4nsc5ccccc45)c3)CC2)cc1 0%, Nc1c(C(=O)Nc2ccc(F)c(F)c2)sc2nc(-c3ccncc3)ccc12 -2.74%, COC(=O)c1cc(NC(=O)c2nn(C)c3c2COc2ccccc2-3)cc(C(=O)OC)c1 -17.2%, COc1ccc(S(=O)(=O)Nc2ccc3c(c2)CCCN3S(=O)(=O)c2ccc(C)cc2)cc1F 8.17%, COc1cccc(CNC(=O)c2cc(C)nc3c2c(C)nn3-c2cccc(F)c2)c1 -18.8%, O=C(COCc1cc(-c2ccc3c(c2)OCO3)on1)N1CCN(c2ccccc2)CC1 -1.47%, COc1ccccc1NC(=O)C1=C(C)Nc2nc(SCc3ccccc3F)nn2C1c1cccs1 (stereo unspecified) 0%, Cc1ccc(S(=O)(=O)NCCc2cn3ccsc3n2)cc1 3.61%, COc1ccc(-n2nnnc2C2CCN(S(=O)(=O)c3ccc(C(C)(C)C)cc3)CC2)cc1 -5.25%, CCC(CC)C(=O)Nc1nc2c(s1)CC(C)CC2 (stereo unspecified) -2.39%, COc1ccccc1CCNS(=O)(=O)c1ccc(N2CCCCS2(=O)=O)cc1 9.69%, COc1ccc(NC(=O)CCc2nnc3n(CC(C)C)c(=O)c4ccccc4n23)cc1 -0.0948%, COc1ccc(CNC(=O)c2ccc(CS(=O)Cc3ccccc3Cl)o2)cc1 (stereo unspecified) -2.89%, Cc1ccc(C2c3[nH]c4ccccc4c3CCN2C(=O)CCC2CCCC2)cc1 (stereo unspecified) -28.8%, Cc1nc2ccn(Cc3ccco3)c(=O)c2cc1C(=O)N1CCN(c2ccccc2)CC1 -0.394%, CCc1ccccc1NC(=O)C1CCCN(c2ncnc3onc(C)c23)C1 (stereo unspecified) -23.3%, O=C(c1ccc(CSc2nc3ccncc3n2Cc2ccccc2)cc1)N1CCCCCC1 2.41%, Cc1ccc(-n2nc(C(=O)N3CCN(c4cc(Cl)ccc4C)CC3)c3c4ccccc4n(C)c3c2=O)cc1 -9.22%, Cc1ccc(Cl)cc1-n1ncc2c(Nc3cccc(C)c3C)ncnc21 0.931%, Cc1ccc(NC(=O)Cn2ccn(-c3ccc(F)c(F)c3)c(=O)c2=O)cc1C 9.72%, C=Cc1ccc(CSc2nc(-c3ccc(C)cc3)nc3c2Cc2c(CO)cnc(C)c2O3)cc1 1.29%, CC(C)c1ccc(OCC(=O)N(Cc2ccc(N(C)C)cc2)C2CCS(=O)(=O)C2)cc1 (stereo unspecified) -1.14%, O=C(Nc1cccc(C(=O)OCc2cc(=O)n3c4c(sc3n2)CCCC4)c1)c1ccccc1 2.97%, Cc1cccc(NC(=O)C(NS(=O)(=O)c2ccc3c(c2)oc(=O)n3C)C(C)C)c1 (stereo unspecified) 0.974%, O=c1c(S(=O)(=O)c2cccc(Cl)c2)cn(Cc2ccccc2)c2cc(N3CCOCC3)c(F)cc12 0.103%, Cc1ccc2nc(-c3cccnc3)c(Nc3ccccc3C)n2c1 2.15%, CCOc1ccc(S(=O)(=O)Nc2nc3ccccc3nc2Nc2ccc(OC)cc2)cc1 5.61%, Cc1cc(C)c2nc(N(Cc3cccnc3)C(=O)CCOc3ccccc3)sc2c1 -2.63%, CCc1ccc(NC(=O)Cn2c(=O)n(Cc3ccco3)c(=O)c3cccnc32)cc1 -6.09%, COc1cc(CCC(=O)NCc2ccc3c(c2)CCN3C(=O)c2ccc(F)cc2)cc(OC)c1OC -5.06%, CCOC(=O)c1c(SCC(=O)Nc2cc(Cl)cc(Cl)c2)nc(=O)[nH]c1C -4.74%, COc1ccc2ncc3c(-c4ccc(C)c(C)c4)nn(CC(=O)NC4CCCC4)c3c2c1 0.753%, COc1ccc(-c2nc3c(c(SCC(=O)N(C)c4ccccc4)n2)Cc2cc(C)ccc2O3)cc1 0.247%, CCCCNC(=O)C1CCC(CNS(=O)(=O)c2ccc(NC(C)=O)cc2)CC1 (stereo unspecified) -7.35%, Cc1ccc2nc(NCc3ccc(F)cc3)c3nncn3c2c1 6.46%, Cc1nc(-c2ccc(S(=O)(=O)NCc3ccc(N(C)C)cc3)cc2)co1 -2.15%, CCN(CC)c1ccc(NC(=O)Cn2nc(C)n3cccc3c2=O)c(C)c1 -1.07%, Cc1cccc(-n2ncc3c(N4CCN(c5ccccc5)CC4)ncnc32)c1 2.61%, CCc1ccccc1NC(=O)CCc1c(C)nn(-c2ccc(N3CCOCC3)nn2)c1C -10.4%, CCc1nn2c(=O)cc(COC(=O)c3ccccc3NC(=O)C3CCCCC3)nc2s1 7.19%, CCc1ccc(CNCc2c(C(=O)O)n(Cc3ccc(F)cc3Cl)c3cc(OC)ccc23)cc1 1.29%, O=C(c1ccc(F)cc1)n1nc(-c2ccccc2)nc1NCc1ccc(F)cc1 -4.12%, COc1cc2ccccc2cc1C(=O)N1CCN(c2nc3ccc(F)cc3s2)CC1 -3.08%, CCC(Sc1nc2ccccc2c2nc(-c3ccccc3)nn12)C(=O)Nc1cccc(OC)c1 (stereo unspecified) -0.296%, Cc1ccc2oc(=O)c3cnn(CC(=O)N4CCN(c5ccccc5)CC4)c3c2c1 -14.5%, COC(=O)c1c(NC(=O)CS(=O)(=O)c2ccc(C)cc2)sc2c1CCCC2 -3.64%, Cc1c(Cl)cccc1NC(=O)CCN1C(=O)c2ccccc2Sc2ncccc21 -12.3%, CCN(CC)C(=O)c1cc(-c2ccc(Cl)cc2)on1 3.19%
